{
  "source": "the RNAGym collection of RNA variant scans (doi:10.1093/nar/gkz1192)",
  "parents": {"B1": {"name": "CPEB3 Ribozyme (parent)", "chain": "UAACAGGGGGCCACAGCAGAAGCGUUCACGUCGCAGCCCCUGUCAGAUUCUGGUGAAUCUGCGAAUUCUGCUGUAUAUCUC"}},
  "note": "Read counts are not given, so values of variants with three or more changes are uncertain.",
  "data": [
    {"variants_of": "B1", "experiment": "self-cleavage, relative activity (ratio to wild type); higher = more cleavage; in vitro, sequencing", "summary_of_the_method": "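CPEB3 self-cleaving ribozyme mutant libraries were made by rounds of error-prone PCR, barcoded, and transcribed in vitro with T7 RNA polymerase for 5 hours at 37°C. Cleavage occurred during transcription and a 15 min DNase I step before EDTA stop. RNAs were reverse transcribed with template switching and Illumina-sequenced, with DNA sequencing mapping barcodes to variants. Relative activity is the variant's cleaved/total read fraction divided by wild type's (minimum 5 reads), averaged across three batches.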", "values": [
      {"variant": "UAACGGGGGGCCGCAGCUGAAGCGUUCACGUCGCAGCCCCUGUCAGAUUCUGGAGUAUCUGCGAAUUCUGCUGUAUAUCUC", "note": "[A5G A13G A18U U54A A56U]", "self-cleavage": 0.16},
      {"variant": "UAACCGGGGGCCACAGCAGAAGCGUUCACGACGCGGCCCCUGUCAGUUUCUGGUGAAUCUGCGAAUUCUGCUGUAUAUCUC", "note": "[A5C U31A A35G A47U]", "self-cleavage": 0.77},
      {"variant": "UAACCGGGGGCCACAGCAGAAGCGUUCACGUCGCAGCCCCUGCCAGACUCUGGUGAUUCUGCGAAUUCUGCUGCAUAUCUC", "note": "[A5C U43C U48C A57U U74C]", "self-cleavage": 0.07},
      {"variant": "UAACGGGGGGCCGCAGCGGAAGCGUUCGUGUCGCAGCCCCUGUCAGAUUCUGGUGAAUCUGCGAAUUCAGCUGUAUAUCUC", "note": "[A5G A13G A18G A28G C29U U69A]", "self-cleavage": 0.07},
      {"variant": "UAACGGGGGGCCGCAGCGGAAGCGUUCACGUCGCGGCCCCUGUCAGAUUCUGGUGAAUCUGCGAAUUCUGCCGUAUAUCUC", "note": "[A5G A13G A18G A35G U72C]", "self-cleavage": 0.09},
      {"variant": "UAACGGGGGGCCCCAGCAGAAGCGUUCACGUCGCAGCCCCUGACAGAUUCUGGUGAUUCUGCGAAUUCAGCUGUAUUUCUC", "note": "[A5G A13C U43A A57U U69A A77U]", "self-cleavage": 0.21},
      {"variant": "UAACGGGGGGCCGCAGCAGAAGCGUUCACGUCGCUGCCCCUGUCAGAUUCUGGUGAAUCCGCGGAUUCUGCUGUAUAUCUC", "note": "[A5G A13G A35U U60C A64G]", "self-cleavage": 0.16},
      {"variant": "UAACGGGGGGCCGCAGCAGAAGCAUUCACGUCGCAGCGCCUGUCAGAUUCUGGUGAAUCUGCGGAUUCUGCUGUAUAUCUC", "note": "[A5G A13G G24A C38G A64G]", "self-cleavage": 0.04},
      {"variant": "UAACGGGGGGCCGCAGCAGAAGCGUUCACGUCGCGGCCCCUGUCAGAUUCUGGUGAAUCUGCGAAUUCUGCUGUAUAUCUC", "note": "[A5G A13G A35G]", "self-cleavage": 0.74},
      {"variant": "UAACGGGGGGCCGCAGCAGAAGCGUUCACGUCGCAGCCCCUAUCAGAUUCUGGUGAAUCCGCGUAUUCUGCUGUAUAUCUC", "note": "[A5G A13G G42A U60C A64U]", "self-cleavage": 0.34},
      {"variant": "UAACGGGGGGCCGCAGCAGAAGUGUUCACGUCGCAGCCCCUGUCAAAUUCAGGUGAAGCCGCGAAUUCUGCUGUAUAUCUC", "note": "[A5G A13G C23U G46A U51A U58G U60C]", "self-cleavage": 0.09},
      {"variant": "UAACCGGGGGCCACAGCAGAAGCGCUCACGUCGCAGCCCCUGUCAGAUUCUGGUGAAUCUGCGAACUGUGCCGUAUAUCUC", "note": "[A5C U25C U66C C68G U72C]", "self-cleavage": 0.04},
      {"variant": "UAACCGGGGGCCACAGCAGAAGCGUUCACGUCGCAGCCCCAGUCAGUUUCUGGUGAUUCUGCGAAUUCUGCUGUAUAUCUC", "note": "[A5C U41A A47U A57U]", "self-cleavage": 0.33},
      {"variant": "UAACGGGGGGCCGCAGCAGAAGCGUUCUCGUCGCAGCGCCUGUCAGAUUCUGGUGAAUCUGCGGAUUCUGCUGUAUAUCUC", "note": "[A5G A13G A28U C38G A64G]", "self-cleavage": 0.31},
      {"variant": "UAACCGGGGGCCACAGCAGAAGCGUCCACGUCGCAGCCCCCGUCAGAUUCUGGUGAAUCUGCGAAUUCUGCUGUAUAUCUC", "note": "[A5C U26C U41C]", "self-cleavage": 0.17},
      {"variant": "UAACCGGGGGCCACAGCAGAAGCGUUCACGCCGCAGCCCCUGUCAGAUUCUGGUGUAUCUGUGAAUUCUGCUGUAUGUCUC", "note": "[A5C U31C A56U C62U A77G]", "self-cleavage": 0.1},
      {"variant": "UAACGGGGGGCCGCAGCAGAAGCGUUCACGUCGCAGCCCCUGUCAGAUUCUGGUGAAUCUGCAAAUUCUGCUGUAUAUCUC", "note": "[A5G A13G G63A]", "self-cleavage": 0.18},
      {"variant": "UAACGGGGGGCCGCAGCAGAAGCAUUCACGUCGCAGCACCGGUCAGAUUCUGGUGAAUCUGCGAAUUCUGCUGAAUAUCUC", "note": "[A5G A13G G24A C38A U41G U74A]", "self-cleavage": 0.08},
      {"variant": "UAACGGGGGGCCGCAGCAGAAGCGCUCACGUCGCAGCCCCUGUCAGAUUCUGGUGAAUCUGCGAAUUCUGCUGUAUAUCUC", "note": "[A5G A13G U25C]", "self-cleavage": 0.36},
      {"variant": "UAACCGGGGGCCACAGCAGAAGCGCUCACGUCGCAGCCCCAGACAGAUUCUGGCGAAACUGCGAAUUCAGCUGUAUAUCUC", "note": "[A5C U25C U41A U43A U54C U58A U69A]", "self-cleavage": 0.07},
      {"variant": "UAACCGGGGGCCACAGCAGAAGCGUUCACGUCGCAGCCCCUGUCAGAUUCUGGUGAAUCUGCGAAUUCCGCUGUAUAACUC", "note": "[A5C U69C U78A]", "self-cleavage": 0.59},
      {"variant": "UAACGGGGGGCCGCAGCAGAAGCGUUCACGUCGCAGCCCCUGUCUGAUUCUGGUGUAUCUGCGAACUCUGCUGUAUAUCUC", "note": "[A5G A13G A45U A56U U66C]", "self-cleavage": 0.07},
      {"variant": "UAACGGGGGGCCGCAGCGGAAGCGUCCACGUCGCAGCCCCUGUCUGAUUCUGGUGAAUCUGCGAAUUCAGCUGUAUAUCUC", "note": "[A5G A13G A18G U26C A45U U69A]", "self-cleavage": 0.05},
      {"variant": "UAACCGGGGGCCACAGCAGAAGCGUUCACGCCGCAGCCCCAGUCAGAUUCAGGCGAAUCUGCGAAUUCUGCUGUAUAUCUC", "note": "[A5C U31C U41A U51A U54C]", "self-cleavage": 0.15},
      {"variant": "UAACGGGGGGCCGCAGCAGAAGCUUUCACGCCGCAGCCCCUGUCAGGUUCUGGUGAAUCUGCGAAUUCUGCUGUAUAUCUC", "note": "[A5G A13G G24U U31C A47G]", "self-cleavage": 0.29},
      {"variant": "UAACGGGGGGCCCCAGCAGAAGCGUUCGCGUCGCAGCCCCUGUCAGAUUCUGGUGAAUCAGCGAAUUCUGCUGUAUAUCUC", "note": "[A5G A13C A28G U60A]", "self-cleavage": 0.26},
      {"variant": "UAACGGGGGGCCGAAGCAGAAGCGCUCACGCCGCAGCCCCUGUCAGAUUCUGGUGAAUCUGCGAAUUGUGCUGCAUAUCUC", "note": "[A5G A13G C14A U25C U31C C68G U74C]", "self-cleavage": 0.1},
      {"variant": "UAACGGGGGGCCGCAGCAGAAGCGCUCACGUCGCAGUCCCUGUCAGAUUCUGGUGAAUCUGCGAAUUCUCCUGUAUACCUC", "note": "[A5G A13G U25C C37U G70C U78C]", "self-cleavage": 0.23},
      {"variant": "UAACCGGGGGCCACAGCAGAAGCGUUCACGUCGCAGCCCCUGUCAGAUUCCGGUGAAUCAGCGAAUUCUGCUGUAUACCUC", "note": "[A5C U51C U60A U78C]", "self-cleavage": 0.38},
      {"variant": "UAACCGGGGGCCACAGCAGAAGCGUACACGCCGCUGCCCCUGUCAGAUUCUGGCGAAUCUGCGAAUACUGCUGUAUAUCCC", "note": "[A5C U26A U31C A35U U54C U67A U80C]", "self-cleavage": 0.07},
      {"variant": "UAACGGGGGGCCGCAGCAGUAGCGUUCACGUCGCAGCCCCUGUCAGAUUCUGGUGUAUCUGCGAAUUCUACUGUAUAUCUC", "note": "[A5G A13G A20U A56U G70A]", "self-cleavage": 0.12},
      {"variant": "UAACCGGGGGCCACAGCAGAAGCGUUCACGACGCAGCCCCUGUCAGAUCCUGGUGAAUCCGCGAACUCUGCUGUAUAUCUC", "note": "[A5C U31A U49C U60C U66C]", "self-cleavage": 0.12},
      {"variant": "UAACCGGGGGCCACAGCAGAAGCGUUCACGCCGCAGCCCCUGUCAGAUUCUGGUGAAUCUGCGAAUUCUGCUGUAUAUCCC", "note": "[A5C U31C U80C]", "self-cleavage": 0.58},
      {"variant": "UAACCGGGGGCCACAGCAGAAGCGUUCACGUCGCAGCCCCUGUCAGAUUCCGGUGAAUCUGCGAAUUCUGCUGUAUAUUUC", "note": "[A5C U51C C79U]", "self-cleavage": 0.71}
    ]}
  ]
}
